Structures are written as SMILES. The list shows a part of the results. Further columns of the screen follow, without active or inactive calls.

Common to all, as to test: Primary Screen for Target Class Profiling of Small Molecule Inhibitors of Methyltransferases
The target in test [1] is Glycine N-methyltransferase (Homo sapiens) (UniProt Q14749). Particulars: purified enzyme, MTase-Glo SAH luminescence; measured here: GNMT inhibition; at 40 µM; stronger effect = lower value. In short, it runs like this:
(§1)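 Each enzyme was assayed with SAM and its substrate. SAH formation detected by MTase-Glo luminescence; single-point 40 uM screen[…].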

Test [2] has as its target Guanidinoacetate N-methyltransferase (Homo sapiens) (UniProt Q14353). Particulars: purified enzyme, MTase-Glo SAH luminescence; measured here: GAMT inhibition; at 40 µM; stronger effect = lower value. An outline of the steps:
as §1

For test [3], the target named is Histamine N-methyltransferase (Homo sapiens) (UniProt P50135). As to conditions: purified enzyme, MTase-Glo SAH luminescence; measured here: HNMT inhibition; at 40 µM; stronger effect = lower value. An outline of the steps: as §1
For test [4], the target named is Nicotinamide N-methyltransferase (Homo sapiens) (UniProt P40261). Particulars: purified enzyme, MTase-Glo SAH luminescence; measured here: NNMT inhibition; at 40 µM; stronger effect = lower value. In short, it runs like this: as §1
In test [5] the target is Phenylethanolamine N-methyltransferase (Homo sapiens) (UniProt P11086). Particulars: purified enzyme, MTase-Glo SAH luminescence; measured here: PNMT inhibition; at 40 µM; stronger effect = lower value. In short, it runs like this: as §1
% is scaled to controls: 0 for no effect and ±100 for the full control effect.

Consider `Cc1ccc(N2C(=O)c3nc4ccccc4n3CC2(C)C(=O)NC2CCCCC2C)cc1` (stereo not given), for which the activity change, negative = inhibition in test [1] turned out to be 4.1%; in test [2], 0%; in test [3] it was 8.04%; in test [4], 10%; in test [5], 1.81%.
With `C=CCn1c(=O)c2ccc(C(=O)NC(C)C)cc2n2c(=O)n(CC(=O)Nc3cccc(F)c3)nc12`, the activity change, negative = inhibition in test [1] stood at 6.41%; in test [2], 0%; in test [3], 8.75%; in test [4], 1.37%; in test [5] it was 2.64%.
For the compound `O=C(c1ccc2ncccc2c1)N1CCC(c2nc(CCOCC3CCOCC3)no2)C1` (stereo not given), the activity change, negative = inhibition in test [1] was 2.31%; in test [2] it was 0.861%; in test [3] it was 2.25%; in test [4], -3.98%; in test [5], 0.221%.
Consider `O=C1c2ccccc2OCC2(CCN([S+](=O)([O-])c3ccccc3)C2)N1[S+](=O)([O-])c1ccccc1` (stereo not given), for which the activity change, negative = inhibition in test [1] is -7.87%; in test [2], -10.4%; in test [3], -6.5%; in test [4] it was -23.5%; in test [5] it was -13.3%.
For `O=C(C[C@@H]1C(C(=O)O)=CO[C@@H](O[C@@H]2O[C@H](CO)[C@@H](O)[C@H](O)[C@H]2O)/C1=C\CO)OCCc1ccc(O)c(O)c1`, the activity change, negative = inhibition was 6.25% in test [1]; 5.49% in test [2]; 13% in test [3]; -8.49% in test [4]; 7.4% in test [5].
Regarding `CCCn1c(=O)c2ccc(Cl)cc2n2c(SCC(=O)Nc3ccccc3Cl)nnc12`, the activity change, negative = inhibition is -1.28% in test [1]; 2.37% in test [2]; -1.22% in test [3]; 2.6% in test [4]; -1.66% in test [5].
Turning to `CC(=O)Nc1c2n(c3ccc(F)cc13)CC(C)(C(=O)NC1CCCCC1)N(C1CCCCC1)C2=O` (stereo not given), the activity change, negative = inhibition is -3.26% in test [1]; -0.758% in test [2]; -1.87% in test [3]; -7.25% in test [4]; -1.83% in test [5].
For the compound `CCN1C(=O)c2cc(C(=O)NCc3ccccc3)nn2CC1(C)C(=O)NC1CCCC1` (stereo not given), the activity change, negative = inhibition is -1.83% in test [1]; -0.908% in test [2]; -0.977% in test [3]; -2.58% in test [4]; -4.64% in test [5].
For `Cc1ccccc1CNC(=O)C1(C)Cc2ccccc2C(=O)N1Cc1cccc(Cl)c1` (stereo not given), in that order: -0.453%, 6.3%, -6.21%, -10.4% and -0.385%.
Consider `CCc1cccc(NC(=O)c2ncn3c2C(=O)N(C2CC2)C(C)(C(=O)NCc2ccc(F)cc2)C3)c1` (stereo not given), for which the activity change, negative = inhibition in test [1] is -1.67%; in test [2] it was 0%; in test [3], 2.09%; in test [4], 1.6%; in test [5], 2.13%.
For `O=C(O)CC1(CC(=O)N[C@H]2C[C@@](O)(C(=O)N[C@H]3CCCNC3=O)C[C@@H](O)[C@@H]2O)CCCC1`, the activity change, negative = inhibition in test [1] is -0.835%; in test [2] it was 1.4%; in test [3], 1.86%; in test [4], 0.03%; in test [5] it was 1.36%.
`NC(=O)C1CCN(C(=O)CCc2nnc3n(Cc4ccc(F)cc4)c(=O)c4ccccc4n23)CC1`: the activity change, negative = inhibition is -4.12% in test [1]; 0.844% in test [2]; -6.31% in test [3]; 8.14% in test [4]; -8.3% in test [5].
As for `Cc1cc(Cn2cnc3c2CC(C(=O)O)N(C(=O)C(c2ccccc2)c2ccccc2)C3)ccc1N(C)C` (stereo not given), the activity change, negative = inhibition in test [1] was -0.13%; in test [2], -7.51%; in test [3], -2.38%; in test [4] it was -19.3%; in test [5], -6.08%.
On to `Cn1c(=O)n(C)c2cc(S(=O)(=O)NCCN3CCOCC3)ccc21`, for which the activity change, negative = inhibition in test [1] is 0.92%; in test [2], 5.71%; in test [3] it was -4.78%; in test [4], -4.32%; in test [5] it was -5.66%.
For `CCOC(=O)c1cc2n(n1)CC(C)(C(=O)NCc1ccccc1OC)N(c1ccc(C)c(C)c1)C2=O` (stereo not given), in that order: 4.87%, 1.23%, 12%, 1.32% and 6.09%.
For `CCc1ccc(S(=O)(=O)c2nnn3c2nc(N)c2cc(Cl)ccc23)cc1`, in that order: -13.4%, 0.089%, -3.33%, -4.03% and -0.867%.
The corresponding values for `Cc1ccc(N2C(=O)c3cc(C(C)(C)C)nn3CC2(C)C(=O)NCc2ccccc2)cc1` (stereo not given) are 5.03%, 3.81%, 3.69%, -0.249% and 0.932%.
For the compound `CCC(C)NC(=O)c1ccc2c(=O)n(CC(C)C)c3nn(CC(=O)N(C)c4ccccc4)c(=O)n3c2c1` (stereo not given), the activity change, negative = inhibition was 2.44% in test [1]; 0% in test [2]; 11.5% in test [3]; -0.684% in test [4]; 8.91% in test [5].
The corresponding values for `CC(C)Cn1c(=O)c2ccccc2n2c(=O)n(CC(=O)c3ccc(Br)cc3)nc12` are 9.94%, 2.22%, 13%, 10.4% and 9.49%.
Consider `CCc1ccc(C2c3cccn3-c3sc4c(c3CN2C(=O)Nc2ccc(OC)cc2)CCCC4)cc1` (stereo not given), for which the activity change, negative = inhibition in test [1] was -1.75%; in test [2] it was 0%; in test [3], 10.5%; in test [4] it was 3.83%; in test [5] it was 5.96%.
As to `CC(C)CC(=O)O[C@@H]1OC=C(CO[C@@H]2O[C@H](CO)[C@@H](O)[C@H](O)[C@H]2O)[C@H]2[C@@H]3O[C@H]3[C@@](O)(CO)[C@@H]12`, the activity change, negative = inhibition in test [1] was 5%; in test [2] it was 9.12%; in test [3], 7.18%; in test [4], -2.27%; in test [5], 7%.
For `O=C1COc2ccc(N3CCOCC3)nc2CN1Cc1ccc(F)cc1`, the activity change, negative = inhibition in test [1] was -5.56%; in test [2], -0.26%; in test [3], -3.31%; in test [4], -5.25%; in test [5], -3.03%.
As for `Cc1onc(-c2c(Cl)cccc2Cl)c1CC(=O)NCc1ccc(OCC(F)(F)F)nc1`, the activity change, negative = inhibition in test [1] was -2.53%; in test [2] it was -2.18%; in test [3] it was 8.36%; in test [4] it was -17.8%; in test [5], -2.63%.
In the case of `COc1ccccc1C(=O)N1CCC2(CC1)NC(=O)c1ccccc1O2`, the activity change, negative = inhibition is -7.09% in test [1]; -9.02% in test [2]; -2.44% in test [3]; -16.8% in test [4]; -20.9% in test [5].
Consider `COc1ccc(N2CCN(C(=O)c3ccc4c(=O)nc5c(-c6ccccc6F)n[nH]n5c4c3)CC2)cc1`, for which the activity change, negative = inhibition in test [1] is -14.8%; in test [2], 0.053%; in test [3], -0.764%; in test [4] it was -5.29%; in test [5] it was -3.57%.
For `O=C(c1cccc(OC(F)F)c1)N1CC[C@H](N2CCOCC2)[C@H](CCCO)C1`, the activity change, negative = inhibition in test [1] is -4.28%; in test [2], -11.3%; in test [3], -1.53%; in test [4], -13.3%; in test [5], -5.96%.
As for `C=C(CCO)C(=O)OCC1OCC(OC(=O)C(=C)CCO[C@@H]2O[C@H](CO)[C@@H](O)[C@H](O)[C@H]2O)C(O)C1O` (stereo not given in full), the activity change, negative = inhibition in test [1] is 9.64%; in test [2], 7.91%; in test [3] it was 10.4%; in test [4] it was -1.24%; in test [5], 5.93%.
As to `Cc1ccc(CNC(=O)C2(C)Cn3nc(C(=O)NCc4cccs4)cc3C(=O)N2C)cc1` (stereo not given), the activity change, negative = inhibition in test [1] turned out to be 4.9%; in test [2], 0%; in test [3] it was 1.28%; in test [4], 2.78%; in test [5] it was 3.94%.
Take `CC(C)N1C(=O)C2(CCCCC2)C1C(=O)NCc1nc2ccccc2n1C` (stereo not given): the activity change, negative = inhibition in test [1] is -1.27%; in test [2], -0.868%; in test [3], 1.21%; in test [4], -5.09%; in test [5] it was -0.418%.
